According to PubChem BioAssay AID686971 (National Center for Advancing Translational Sciences (NCATS), 2013):
The campaign covered roughly 360,000 compounds. About 7,500 (2.1%) were called active. The inconclusive results got no clear call from the source; some entries with a clear call stand among them for comparison. The call rests on the fitted dose curve; in most records, active means well fitted cell-killing curve with a large enough effect; inconclusive means small, poorly fitted or top-dose-only effect, or effect the other way, or another doubt; inactive means no such curve, though single readings can be large or run the other way. Potencies of inconclusive entries are left out as doubtful fits.

experiment: qHTS for induction of synthetic lethality in tumor cells producing 2HG: qHTS for the HT-1080-IDH1KD cell line; details: HT-1080 IDH1 knockdown viability, ATP luminescence, 48 h; activity, negative = toxicity: at 46.1 µM (top of the series) unless noted;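 on activity, negative = toxicity: 0% = DMSO wells and -100% = cell-free medium wells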
Summary of the method: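 IDH1KD HT-1080 cells, 750/well, RPMI + 5% FBS; compound pinned after 2 h settling; 48 h, 37 °C; CellTiter-Glo luminescence; % activity normalised to DMSO and no-cell wells; curves fitted, classed by r2 and efficacy.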
Potency means the concentration at half of the fitted maximal effect; tags describe the fitted curve by direction and shape.

| Structure (SMILES) | activity, negative = toxicity | Potency |
| --- | --- | --- |
| Clc1ccc(OCc2nnc3n2CCCCC3)c(Cl)c1 | inactive: -4.24% |  |
| COc1cc(C(=S)N2CCN(c3cccc(Cl)c3)CC2)ccc1O |  | active: 16.4 µM |
| Cn1cc(CN2CCCC(C(=O)c3ccc(-c4ccccc4)c(F)c3)C2)cn1 (stereo not given) |  | active: 16.4 µM |
| O=C(NCCc1ccc(F)cc1)c1coc(=O)c(Br)c1 |  | inconclusive [cytotoxic, single point] |
| CCn1c(CCNC(=O)c2ccc(Cl)c(Cl)c2)nnc1SCCOc1ccc(OC)cc1 |  | inconclusive [cytotoxic, single point] |
| Cc1cc(O)c(-c2cc(C(=O)Nc3ccc(S(=O)(=O)N4CCOCC4)cc3)[nH]n2)cc1C |  | active: 10 µM |
| CCOC(=O)N1CCC(=C2c3ccc(Cl)cc3CCc3cccnc32)CC1 |  | inconclusive [cytotoxic, single point] |
| CCCCC(O)(CCCC)C(=O)NN(C(=O)CCl)c1ccccc1 |  | inconclusive [cytotoxic, single point] |
| CC(C)Oc1ccc(C(CC(=O)O)NC(=O)C(Sc2ccccc2)c2ccccc2)cc1 (stereo not given) | inactive: -1.32% |  |
| N/C(=N\O)c1ccc([N+](=O)[O-])s1 | inactive: 1.37% |  |
| O=C(COc1ccccc1)NCC1CCCO1 (stereo not given) | inactive: -0.516% |  |
| COc1ccc(-c2csc(C(C)(O)c3cccc(F)c3)n2)cc1 (stereo not given) |  | inconclusive [cytotoxic, single point] |
| O=c1[nH]cc(S(=O)(=O)N2CCN(c3ccc(F)cc3)CC2)c(=O)[nH]1 | inactive: -2.22% |  |
| CCOC(=O)C1=CCN(S(=O)(=O)c2ccccc2Cl)C1c1cccc(Cl)c1 (stereo not given) |  | inconclusive [cytotoxic, single point] |
| O=C(c1cc(COc2ccc(F)cc2Cl)on1)N1C[C@H]2CC[C@H]1C2 | inactive: 2.14% |  |
| O=[N+]([O-])c1cc(Br)c(Nc2ccccc2)c([N+](=O)[O-])c1 |  | active: 3.26 µM |
| COc1ccc(OCCOC(=O)CNC(=O)c2ccc(F)cc2)cc1 | inactive: 9.36% |  |
| C=C1CCC[C@]2(C)C[C@H]3OC(=O)C(CN4CCCCC4CO)[C@H]3CC12 (stereo not given in full) |  | inconclusive [cytotoxic, single point] |

| Structure (SMILES) | activity, negative = toxicity | Potency |
| --- | --- | --- |
| CN(C)S(=O)(=O)c1cccc(N=C2NN=C(c3ccccc3)CS2)c1 |  | inconclusive [cytotoxic, single point] |
| COc1cc(C(=O)NC2CC(C)(C)CC(C)(C)C2)ccc1OC1CCN(C(C)=O)CC1 | inactive: -6.26% |  |
| COc1ccc(CN2CCN(C(=O)CCC(=O)Nc3nnc(C(F)(F)F)s3)CC2)cc1F | inactive: -11.5% |  |
| CCOc1cc(C(c2c(C)[nH][nH]c2=O)c2c(C)[nH][nH]c2=O)cc(Br)c1OC | inactive: 3.76% |  |
| COc1ccc(-c2coc3c(C(=O)Nc4cccnc4)cccc23)c(C)c1 |  | inconclusive [cytotoxic, partial curve] |
| COc1ccc(-c2nn(-c3ccccc3)cc2/C=C/C(=O)OCC(=O)Nc2ccc(C#N)cc2)cc1 | inactive: 19.8% |  |
| C=CCN1C(=O)/C(=C/c2ccc(OC(C)=O)c(OCC)c2[N+](=O)[O-])SC1=S |  | active: 20.6 µM |
| OCCN(CCO)c1ncnc2c1oc1ccc(Br)cc12 |  | inconclusive [cytotoxic, partial curve] |
| Fc1ccccc1C1c2[nH]c3ccccc3c2CCN1Cc1ccoc1 (stereo not given) | inconclusive: -32% [cytotoxic] |  |
| O=C(/C=C/c1ccc(Br)cc1)c1ccc(NC2=NCCCS2)cc1 |  | inconclusive [cytotoxic, single point] |
| O=C1c2ccccc2-c2onc3ccc(NCc4ccco4)c1c23 |  | inconclusive [cytotoxic, single point] |
| COc1cc2c(NC3CCN(C)CC3)nc(N3CCCN(C)CC3)nc2cc1OCc1ccccc1 |  | active: 6.31 µM |
| COc1cccc(N2CCN(C(=O)c3ccc4nc(N5CCCCC5)sc4c3)CC2)c1 | inactive: 0.27% |  |
| CC(C)C[C@@H]1O[C@H](CCc2ccccc2)CC2=C1C(=O)OC(C)(C)O2 |  | active: 23.1 µM |
| Cc1cc(OCc2cc(C(=O)N3CCC(Oc4cccnc4)CC3)no2)cc(C)c1Cl |  | inconclusive [cytotoxic, partial curve] |
| O=C(CNC1CCCC1)Nc1ccc(N2CCCCCC2)cc1 | inconclusive: -35.3% [cytotoxic] |  |
| O=Nc1c(O)n(Cc2ccc(Cl)cc2)c2ccccc12 |  | inconclusive [cytotoxic, partial curve] |
